Results from paper PMC4336329 (PLoS ONE, 2015).
Among all 310,000 compounds or so, about 14,000 (4.5%) showed an effect of 50% or more. Effects have a minus sign here. Some of the results follow.

These compounds were tested against human ether-à-go-go-related gene (hERG) potassium channel (human, UniProt Q12809) (assay: primary screen, population patch clamp on CHO cells stably expressing hERG).
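Also: peak tail current of the secondary pulse compared with the same well before compound.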

human ether-à-go-go-related gene (hERG) potassium channel, sequence (Q12809 whole entry, looked up): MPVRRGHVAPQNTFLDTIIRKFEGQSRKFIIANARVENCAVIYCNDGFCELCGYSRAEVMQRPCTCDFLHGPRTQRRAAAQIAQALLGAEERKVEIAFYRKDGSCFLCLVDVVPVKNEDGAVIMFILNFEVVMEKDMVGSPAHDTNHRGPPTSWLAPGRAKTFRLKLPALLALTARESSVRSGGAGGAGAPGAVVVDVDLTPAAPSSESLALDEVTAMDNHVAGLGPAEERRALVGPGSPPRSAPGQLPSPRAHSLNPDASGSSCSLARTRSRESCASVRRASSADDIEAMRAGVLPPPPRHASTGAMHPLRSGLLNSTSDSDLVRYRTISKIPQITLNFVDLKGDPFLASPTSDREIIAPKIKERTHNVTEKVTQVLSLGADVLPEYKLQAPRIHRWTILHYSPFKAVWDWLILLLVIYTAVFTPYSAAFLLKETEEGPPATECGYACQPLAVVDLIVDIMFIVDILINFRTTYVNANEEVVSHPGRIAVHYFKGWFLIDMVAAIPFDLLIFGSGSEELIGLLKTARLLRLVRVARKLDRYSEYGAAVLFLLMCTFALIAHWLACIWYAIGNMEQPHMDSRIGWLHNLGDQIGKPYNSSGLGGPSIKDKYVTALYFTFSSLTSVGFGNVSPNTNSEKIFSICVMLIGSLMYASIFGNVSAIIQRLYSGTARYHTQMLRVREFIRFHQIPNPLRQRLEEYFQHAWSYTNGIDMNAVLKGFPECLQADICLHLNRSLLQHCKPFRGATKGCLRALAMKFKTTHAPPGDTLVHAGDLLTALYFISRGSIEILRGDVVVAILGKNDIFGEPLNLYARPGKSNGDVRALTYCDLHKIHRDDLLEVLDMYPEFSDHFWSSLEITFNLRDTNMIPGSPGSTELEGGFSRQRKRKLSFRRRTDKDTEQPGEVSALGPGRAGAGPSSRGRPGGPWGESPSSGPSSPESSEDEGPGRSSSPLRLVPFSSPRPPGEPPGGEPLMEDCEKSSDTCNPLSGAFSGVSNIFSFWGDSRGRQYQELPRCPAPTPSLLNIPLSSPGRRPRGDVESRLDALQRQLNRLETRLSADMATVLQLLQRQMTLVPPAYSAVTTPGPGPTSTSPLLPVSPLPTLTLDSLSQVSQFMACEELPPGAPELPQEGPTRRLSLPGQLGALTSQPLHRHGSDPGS

SMILES	hERG current change (%, negative = inhibition) at 10uM [%]
Clc1ccc(N2N=C(c3cccs3)CC2c2ccco2)cc1 (centres unmarked)	0.684
c1ccc2[nH]c(-c3ccnc4ccccc34)nc2c1	1.25
O=C(CSc1nnc(Cc2ccccc2)o1)N1CCc2ccccc21	7.54
COC(=O)c1ccccc1N1C(=O)C2C(C1=O)[C@H]1C=C[C@@H]2C1 (some centres unmarked)	-2.08
COCCNC(=O)CCC1CCN(Cc2ccc(-c3ccccc3)cc2)CC1	-63.6
Cc1ccc(N2CC(C(=O)OCC(=O)Nc3cc(C)on3)CC2=O)c(C)c1 (centres unmarked)	14.9
COc1ccc(CCC(=O)Nc2ccc(OC)c(S(=O)(=O)N3CCCCC3)c2)cc1OC	-19.2
C=COC(=O)c1sc2nc(C)cc(C)c2c1N	20.2
CC(=O)N1CCc2cc(S(=O)(=O)C(C)CC(=O)Nc3ccc(OC(F)(F)F)cc3)ccc21 (centres unmarked)	-16.6
Cc1ccc(C(=O)N[C@H](C(=O)OCc2cc(=O)oc3cc(C)ccc23)C(C)C)cc1	-2.78
Cc1ccccc1NC(=S)N(CCCN1CCC(C)CC1)Cc1ccco1	-47.9
CCCCCC(=O)Nc1ccc(C(=O)N/N=C/c2ccc([N+](=O)[O-])cc2)cc1	-1.24
COc1cccc(NC(=O)CN(c2ccc3c(c2)OCO3)S(C)(=O)=O)c1	3.07
CC(C)c1nnc(NC(=O)CCC(=O)NCc2ccc3c(c2)OCO3)s1	13
COc1ccccc1/C=C/C(=O)Nc1cccc(C(C)=O)c1	-5.89
Cc1cc(S(=O)(=O)n2cnc3ccccc32)c(C)cc1Cl	-4.51
CCN1CCC(=NNC(=O)c2ccco2)CC1	2.31
Cc1ccc(S(=O)(=O)NCCC(=O)NC(C)c2ccccc2)cc1 (centres unmarked)	11.9
Cc1cc(C)c(S(=O)(=O)N2CCN(C(=O)C3CCCO3)CC2)c(C)c1 (centres unmarked)	-17.1
CCOc1ccc(Cc2nc(C)c(CC(=O)N3CCOCC3)c(=O)[nH]2)cc1	8.37
CC(=O)Oc1ccc2occ(C(=O)c3ccccc3)c2c1	-9.85
CC1(C(=O)N2CC3(CC(c4ccccc4)=NO3)C[C@H]2C(=O)NCC(N)=O)CC1 (some centres unmarked)	-3.4
COc1cc(C)ccc1OCCON1C(=O)CCC1=O	11

SMILES	hERG current change (%, negative = inhibition) at 10uM [%]
O=C(NCc1nnc(SCC(=O)N2CCCc3ccccc32)n1-c1ccccc1)c1cccc2ccccc12	3.06
COc1ccc(C(=O)CSc2nnc(-c3ccoc3C)n2CC2CCCO2)cc1 (centres unmarked)	-11.7
COc1ccc(S(=O)(=O)Nc2ccc3c(c2)n(C)c(=O)n3C)cc1	13.4
CCCCCOc1ccc(C(=O)NCC(=O)NCC(=O)OCC)cc1	3.49
Cc1oc(/N=C/c2ccc(F)cc2)c(C#N)c1C	25.1
CC1=Nc2ccccc2N=C(NC(=O)c2ccccc2)C1c1ccccc1 (centres unmarked)	-9.83
Cc1cc2cc(C(c3nnnn3Cc3ccco3)N3CCc4ccccc43)c(=O)[nH]c2cc1C (centres unmarked)	9.41
CC1(C)NC(=O)N(CC(O)Cn2c3ccccc3c3ccccc32)C1=O (centres unmarked)	1.48
COc1cc(C)ccc1OCc1cc(C(=O)N(Cc2nccn2C)C(C)C)no1	-0.39
CC(C)CN(C(=O)COC(=O)C12CC3CC(CC(O)(C3)C1)C2)C1CCS(=O)(=O)C1 (centres unmarked)	20
CCCOc1cccc(C(=O)NC(=S)Nc2ccccc2)c1	15
Cc1ccn2c(NC3CCCC3)c(-c3ccsc3)nc2c1	-36.9
CC(=O)Nc1ccc(Nc2cc(C)c3ccccc3n2)cc1	-27.4
COc1cc(OC)cc(C(=O)NC2CCSC2=O)c1 (centres unmarked)	-5.55
CCCn1nc(C(=O)N2CCc3ccccc3C2)c2ccccc2c1=O	-9.54
O=C(NCCc1c[nH]c2ccccc12)C1CCC(Cn2c(=S)[nH]c3ccccc3c2=O)CC1 (centres unmarked)	-13.9
Cc1cc2c(c(SCC(=O)NCCc3ccccc3)n1)C(=O)OC2	-13.8
Cc1onc(-c2ccccc2Cl)c1C(=O)Nc1nnc(-c2ccc(F)cc2)s1	-14.5
O=C(Nc1cccc(Br)c1)c1ccc(OC2CSC2)cc1	-6.64
O=C(N=Nc1c(O)[nH]c2ccc(F)cc12)C1COc2ccccc2O1 (centres unmarked)	-2.06
COc1cc(C(=O)OCC(=O)NCc2ccc(F)cc2)cc(NC(=O)c2cccs2)c1OC	-2
C/C(=N\NC(=O)C(N)=O)c1ccc(O)cc1O	17.6
CCC(C)(C)NC(=O)CN(C(=O)C(=O)Nc1ccc2c(c1)OCCO2)C(C)(C)CC	1.94

SMILES	hERG current change (%, negative = inhibition) at 10uM [%]
CCOC(=O)c1cccc(NC(=O)COc2nsnc2N2CCOCC2)c1	-3.49
c1ccc(SCc2cn3cccnc3n2)nc1	15.1
CC(=O)NCC1CCCN(Cc2cn(-c3ccccc3)nc2-c2ccc3c(c2)OCO3)C1 (centres unmarked)	-45.9
CC(C)(C)OC(=O)N[C@@H](Cc1ccccc1)c1nnc(SCC(=O)O)o1	4.34
O=C1N=C(N2CCN(c3ccccc3)CC2)S/C1=C\c1ccco1	-66.1
CCn1c(SCC(=O)Nc2cc(C)on2)nc2c(c1=O)SC(C)C2 (centres unmarked)	-4.2
C=C(C)C1CC=C(CN2CCN(Cc3ccccc3)CC2)CC1 (centres unmarked)	12.1
N#CCCn1cc(C(=O)Nc2ccc([N+](=O)[O-])cc2)c(-c2ccc3c(c2)OCCO3)n1	-72.8
C=CCOC(=O)C1=C[C@@H](c2csc3ccccc23)[C@H](CCCO)[C@@H](OCC)O1	-27.7
CC(C)CCNC(=O)COC(=O)c1ccc(Br)o1	9.88
COC(=O)C1=C(c2ccc(OC)c(OC)c2)C[C@@H]2CC[C@H]1N2C(=O)N1CCOCC1	10.3
CCOC(=O)CC(NC(=O)C(Cc1ccc(N(CCCl)CCCl)cc1)NC(C)=O)C(=O)OCC (centres unmarked)	0.137
CCOc1ccccc1OCC(=O)Nc1ccc(OC)c(S(=O)(=O)N2CCCCC2)c1	-29.7
CN(CCNC(=O)c1ccc(/C=N/O)nc1)Cc1ccccc1	-29.3
Cc1cc(C(=O)OCC(=O)NC(=O)NC(C)(C)C)c(C)o1	-2.39
Cc1ccc(C(=O)n2nc(-c3ccco3)nc2N)cc1	1.96
CCCCN1C(=O)CC(Sc2ncccc2C(=O)O)C1=O (centres unmarked)	13
O=C(Nc1ccc(-c2noc(CCc3ccccc3)n2)cc1)c1ccco1	6.55
c1cnc2c(c1)ncc1cscc12	-17.5
CC1CC(=O)Nc2ccc([N+](=O)[O-])cc2N1C (centres unmarked)	7.59
c1cncc(C(c2nnnn2C2CCCC2)N2CCN(Cc3ccc4c(c3)OCO4)CC2)c1 (centres unmarked)	-10.8
COc1cc(/C=C2\C(=O)NN(c3ccccc3)C2=O)ccc1OCC(N)=O	8.39
COc1ccc(C(=O)NC(=S)Nc2nc(-c3ccc(OC)c(Br)c3)cs2)cc1Br	23.1

SMILES	hERG current change (%, negative = inhibition) at 10uM [%]
O=C(O)CCCC(=O)Nc1cccc(C(=O)Nc2ccccc2C(=O)O)c1	21.5
Cc1ccc(NC(=S)NNC(=O)CCn2cc(C)cn2)cc1	14.3
CCN(CC)S(=O)(=O)c1ccc(C(=O)OCC(=O)NCCN2C(=O)CSC2=O)cc1	-14.4
Cc1ccc(C(=O)Oc2cc(N)n(S(=O)(=O)c3ccc(C)cc3)n2)cc1	9.19
COc1ccc2[nH]c3c(=O)n(CCCCC(=O)N4CCCC4)c(=S)[nH]c3c2c1	-1.29
O=C(/C=C/c1cccs1)NC(=S)Nc1ccccc1	25.2
O=C(CCCNS(=O)(=O)c1ccc(Cl)c(Cl)c1)NCCc1ccccn1	-16.9
Cc1ccc(C(=O)NCCCNC(=O)c2ccco2)cc1C	14.7
Cc1cc(-n2cnnn2)ccc1C(C)C	-15.8
Cc1cccc(-n2ccc(=O)c(C(=O)Nc3ccc(S(=O)(=O)Nc4nccs4)cc3)n2)c1	-18.3
O=C(NCC1CCCO1)C(=O)N/N=C/c1ccc(O)c(Cl)c1 (centres unmarked)	10
COc1ccccc1C(=O)Nc1nc(N)n(-c2ccccc2)n1	13.8
CC1=C(C(N)=O)C(c2cccs2)NC(=S)N1 (centres unmarked)	24.5
CC1CCC/C=C/C(=O)c2c(O)cc(O)cc2CC(=O)O1 (centres unmarked)	-8.95
O=C(CCCOc1ccccc1)N1CCc2ccccc2C1	0.877
COc1ccc2cc(CN(CC3CCCO3)C(=O)Nc3ccccc3)c(=O)[nH]c2c1 (centres unmarked)	-33.4
O=C1C(=Cc2cccn2-c2ccc(O)cc2)C(=O)c2ccccc21	1.3
COc1ccc(C(C)=O)cc1CC(=O)Nc1ccccc1-c1ccccc1	20
O=C(CN1CCCCCC1)Nc1cccc(NC(=O)CN2CCCCCC2)c1	13
Cc1ccc2c(CC(=O)OC(C)C(=O)Nc3ncc(Cl)cc3Cl)coc2c1 (centres unmarked)	-28.2
